Data taken from the supplement of paper PMC8291772.
± gives the standard error. The list shows a part of the results.

biological target: terminal deoxynucleotidyl transferase (calf thymus) (UniProt P06526); experiment: TdT poly-dT extension signal (Cy3 hybridisation fluorescence, uncapped minus capped) (fluorescence a.u.); higher = more efficient initiation of TdT extension; conditions: initiator chemistry: 2'-O-methyl-RNA, free 3'-OH (5'-tethered via HEG linker)
Method: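 All mono- to pentamer 2'-O-methyl-RNA initiators were made by photolithographic in situ synthesis (3'-NPPOC amidites, reverse direction, free 3'-OH) on glass on a hexaethylene glycol linker. Each was made in uncapped and DMTr-dT-capped versions, about 11 replicates each. Arrays were extended with calf thymus TdT (0.2 U/uL), 100 uM dTTP and 0.25 mM CoCl2 for 120 min at 37 C, hybridised with an rA18-Cy3 probe and scanned at 532 nm. The value is the mean uncapped minus the mean capped signal. IDs are written 3'->5' and are reversed to 5'->3'; all nucleotides are 2'-OMe.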

Chain of UniProt P06526 (P06526 whole entry): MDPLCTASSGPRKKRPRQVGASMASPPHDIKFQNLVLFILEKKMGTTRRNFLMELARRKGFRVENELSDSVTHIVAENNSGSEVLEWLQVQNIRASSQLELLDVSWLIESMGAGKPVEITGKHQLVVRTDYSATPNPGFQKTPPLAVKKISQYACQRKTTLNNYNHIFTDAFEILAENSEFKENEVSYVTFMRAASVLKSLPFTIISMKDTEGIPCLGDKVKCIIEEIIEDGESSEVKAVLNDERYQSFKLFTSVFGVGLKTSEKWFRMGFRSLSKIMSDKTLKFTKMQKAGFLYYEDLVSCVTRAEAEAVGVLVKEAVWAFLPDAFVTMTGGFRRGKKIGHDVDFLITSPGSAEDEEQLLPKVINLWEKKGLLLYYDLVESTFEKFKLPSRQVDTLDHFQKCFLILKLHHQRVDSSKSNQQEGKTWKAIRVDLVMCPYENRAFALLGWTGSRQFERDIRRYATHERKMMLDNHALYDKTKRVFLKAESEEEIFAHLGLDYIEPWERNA

Sequence | TdT poly-dT extension signal
UAGCG | 313 ± 25
GCACC | 529 ± 45
UGUCG | 160 ± 19
GGGUC | 582 ± 38
UGGC | 907 ± 53
UGGUC | 503 ± 45
UUCC | 422 ± 36
UCACA | 352 ± 26
GGAAG | 497 ± 83
GACC | 422 ± 36
UAGGA | 530 ± 36
UCUCC | 388 ± 25
CGUUA | 322 ± 27
GACG | 225 ± 22
ACGA | 632 ± 82
GCCU | 350 ± 38
AUUUC | 283 ± 15
UUAGA | 611 ± 30
UAAAC | 667 ± 36
CGGU | 476 ± 46
CUGAC | 549 ± 28
CGAU | 429 ± 24
CAAC | 741 ± 45
GCUUG | 230 ± 30

Sequence | TdT poly-dT extension signal
UACUU | 316 ± 30
UCGUU | 288 ± 39
GCUC | 529 ± 37
AGCAU | 538 ± 47
UCAAU | 528 ± 49
CACCA | 369 ± 15
AGGUC | 508 ± 15
GGCCU | 354 ± 33
AGUGC | 1230 ± 130
GAUGG | 187 ± 13
UAUAA | 618 ± 64
UGGAA | 808 ± 54
CCGAC | 582 ± 120
CCACC | 410 ± 37
CUUCG | 138 ± 9.5
AGAGU | 499 ± 44
UACAC | 679 ± 35
CUAAG | 386 ± 36
UCUGG | 193 ± 14
AACAU | 577 ± 67
CCCAG | 497 ± 38
CGCGC | 845 ± 76
GUCCA | 319 ± 24
UGAGC | 1000 ± 68

Sequence | TdT poly-dT extension signal
CUAGG | 361 ± 32
UGCAA | 770 ± 77
ACCAG | 559 ± 61
GUUCC | 438 ± 42
ACAAC | 774 ± 98
CGAAC | 686 ± 37
UCGA | 592 ± 34
UAUUU | 210 ± 20
UCGAA | 708 ± 55
GCUU | 350 ± 26
GUCGA | 446 ± 26
UCCAA | 976 ± 50
AGAA | 990 ± 120
CUCAG | 488 ± 37
GCUAA | 706 ± 63
AAGUA | 513 ± 45
UGAUG | 151 ± 12
GUAAC | 558 ± 40
GUUGA | 369 ± 18
CCGGG | 270 ± 27
UCUUG | 211 ± 29
AAAUC | 471 ± 28
GCAC | 752 ± 62
GCAGC | 1060 ± 59

Sequence | TdT poly-dT extension signal
AGUGA | 443 ± 32
UUUCG | 131 ± 6.9
UGGUU | 267 ± 14
AUAAU | 413 ± 31
GUUC | 472 ± 64
GAUU | 241 ± 15
UGGCA | 337 ± 28
GGGG | 428 ± 23
AUCAA | 779 ± 54
AACAG | 567 ± 34
CCAU | 489 ± 37
GAAUA | 579 ± 39
GGACU | 318 ± 51
GCGCG | 416 ± 69
UGAGA | 565 ± 46
CGAUA | 591 ± 49
GCGC | 946 ± 73
AGACC | 484 ± 42
UAGAC | 713 ± 53
UCUA | 508 ± 41
ACGCU | 411 ± 67
GACGU | 375 ± 38
CCAA | 1060 ± 95
AGGCC | 484 ± 40

Sequence | TdT poly-dT extension signal
GCAGA | 846 ± 100
CGUGG | 249 ± 16
GGCUA | 621 ± 50
AACC | 465 ± 17
ACAUU | 297 ± 21
UGUGC | 1360 ± 95
CCCGU | 537 ± 48
GCUCA | 368 ± 32
CACAU | 469 ± 23
AGUCC | 475 ± 37
ACAAA | 1170 ± 100
GGUA | 376 ± 23
AAAGA | 848 ± 45
GGAUG | 194 ± 18
GCAAC | 935 ± 81
UGCA | 390 ± 33
CCCA | 424 ± 53
GAUGU | 324 ± 40
CCGGA | 551 ± 52
UUUC | 341 ± 23
AAGAU | 506 ± 39
CAGUU | 356 ± 28
CUCCA | 413 ± 57
CUGGG | 263 ± 31

Sequence | TdT poly-dT extension signal
CUCUU | 266 ± 14
CCUAU | 363 ± 16
GUUUA | 322 ± 47
CCUGA | 403 ± 24
UUAUG | 142 ± 12
AGGAU | 433 ± 28
AGCUG | 299 ± 29
UCCA | 384 ± 29
UUCAA | 986 ± 56
CGGC | 808 ± 38
GCCCU | 315 ± 31
CUCGC | 1080 ± 64
AGCCA | 324 ± 16
GAGC | 1040 ± 49
GUGGG | 354 ± 38
CUGCU | 342 ± 29
CAUUG | 172 ± 14
GAUUU | 219 ± 20
UCGUC | 472 ± 19
ACACG | 365 ± 26
AUUAC | 389 ± 26
AUACC | 330 ± 28
GAAA | 879 ± 110
AUCCU | 305 ± 24

Sequence | TdT poly-dT extension signal
UUGCG | 233 ± 25
AGUGG | 280 ± 18
AAAGC | 1270 ± 67
GGAUC | 487 ± 52
CAGAC | 698 ± 45
AUGCC | 528 ± 35
GCCG | 192 ± 16
UGGUA | 391 ± 20
AGACG | 307 ± 21
ACCUA | 571 ± 34
CCUAG | 353 ± 33
AUCA | 332 ± 18
CACAG | 535 ± 36
CAAUU | 301 ± 30
CUACC | 316 ± 29
GAGAU | 514 ± 56
UAGUA | 541 ± 42
CUUAG | 296 ± 21
GUCAG | 364 ± 37
AAAAC | 736 ± 43
CGUU | 237 ± 21
ACACC | 533 ± 73
CGGCC | 713 ± 120
UGAU | 380 ± 24

Sequence | TdT poly-dT extension signal
UAAGG | 350 ± 28
CAGG | 485 ± 57
GGAGG | 415 ± 33
AUUG | 158 ± 20
CUCCG | 194 ± 14
UAGAG | 533 ± 46
CCAAC | 725 ± 53
GAAG | 447 ± 35
UAGUG | 189 ± 14
ACCUG | 304 ± 18
UGCG | 251 ± 32
GCGUU | 366 ± 27
CACCC | 485 ± 45
CGUC | 478 ± 43
GUCCU | 309 ± 25
UCCUC | 481 ± 42
UGUCA | 286 ± 22
UGUAG | 271 ± 17
UGGG | 269 ± 16
CCACA | 344 ± 26
GCUGC | 920 ± 65
GGUUA | 402 ± 32
GCUCC | 410 ± 31
UUGG | 177 ± 12

Sequence | TdT poly-dT extension signal
AAUAC | 583 ± 71
UUCUU | 275 ± 14
CUACA | 270 ± 28
GAUGA | 482 ± 31
AUAAG | 392 ± 34
AAGU | 529 ± 29
UCAA | 786 ± 31
GAGCG | 270 ± 29
ACUCG | 256 ± 14
ACCUU | 331 ± 34
UGACG | 235 ± 17
CAUAG | 475 ± 63
ACGAU | 414 ± 32
CAUCG | 238 ± 12
GAAUC | 464 ± 52
CGCUU | 440 ± 56
CUUCC | 359 ± 29
AGUCG | 229 ± 20
GAUC | 471 ± 44
GCUAU | 377 ± 20
GGCUG | 287 ± 31
AAGCA | 541 ± 58
UGGCC | 502 ± 41
